According to PubChem BioAssay AID463173 (ICCB-Longwood Screening Facility, Harvard Medical School, 2010):
In all, about 52,000 compounds went through this assay and about 4,300 (8.3%) were called active. Rule as the data show it: active = survival mostly below about 52% (no sharp cut-off); inactive = mostly above about 56%. This is one part of the list.

Each compound was assayed on DeltatarO mutant (assay: growth inhibition of S. aureus wild type versus tarO mutant, primary screen, teichoic acid synthesis inhibitors, RN4220, OD600 (AID 463173)). Conditions: OD600, 18 h, hits give low values, screened at 18.75 µg/mL (by protocol).

| Compound | survival |
| --- | --- |
| Cc1ccc(CCNC(=O)c2cnc3c(C)cccn3c2=O)cc1 | inactive: 81% |
| Cc1c(Cl)cccc1NC(=O)Nc1nnc(N(C)C2CCCCC2)s1 | inactive: 97% |
| Cc1ccc(C(=O)c2cn(Cc3cc(C)ccc3C)c3nc(C)ccc3c2=O)cc1 | inactive: 83% |
| CCCCCCNC(=O)CCc1c(C)nc2nc(-c3cc(OC)cc(OC)c3)nn2c1C | inactive: 57% |
| CCOCCCNC(=O)C(NC(=O)C1CCC(C)CC1)C(C)C (stereo not given) | inactive: 81% |
| CCN(CC)Cc1ccc(C(=O)O)o1 | inactive: 97% |
| CN(C1CCCCC1)S(=O)(=O)c1ccc2c(c1)c(=O)c(C(=O)N1CCN(c3ccc(F)cc3)CC1)cn2C | inactive: 81% |
| NC(=O)CSc1nc2cc3c(cc2c(=O)n1CCCCCC(=O)NCc1ccc2c(c1)OCO2)OCO3 | inactive: 81% |
| O=C1CCCC(O)=C1C=Nc1ccc2c(c1)oc1ccccc12 | inactive: 64% |
| CC(=O)c1cccc(NC(=O)CCS(=O)(=O)c2ccc3c(c2)n(C)c(=O)c(=O)n3C)c1 | inactive: 84% |
| O=C(Nc1ccccc1C(F)(F)F)C1(S(=O)(=O)c2ccc(Cl)cc2)CC1 | active: 84% |
| CN1CC(=O)N(CC(=O)Nc2cccc(C#N)c2)c2ccccc2C1=O | inactive: 89% |
| COc1ccc(OC)c(NC(=O)C2CCCN(S(=O)(=O)c3ccc4[nH]c(=O)ccc4c3)C2)c1 (stereo not given) | inactive: 83% |
| COc1ccc(C)cc1NC(=O)C1CCC(CNS(=O)(=O)c2ccc3c(c2)CCCC(=O)N3)CC1 (stereo not given) | inactive: 67% |
| Cc1ccc(-n2cnc3cc(C(=O)NC4CCCCCC4)ccc32)c(C)c1 | inactive: 92% |
| Cc1ccc(NC(=O)CS(=O)CC(=O)NC2CCN(Cc3ccccc3)CC2)c(C)c1 (stereo not given) | inactive: 87% |
| CC(C)c1ccc(-c2noc(C3CCCN(S(C)(=O)=O)C3)n2)cc1 (stereo not given) | inactive: 103% |
| COc1ccc(NC(=O)CC2SC(=Nc3ccccc3)N(CCO)C2=O)cc1 (stereo not given) | inactive: 95% |
| O=C(Nc1ccc(F)cc1)c1ccc(CN2CC(=O)N3CCCCC3C2=O)cc1 (stereo not given) | active: -4% |
| O=C(N/N=C1\SCC(=O)N1CCc1ccccc1)c1cccs1 | inactive: 88% |
| CC(C)c1cc(C(=O)NCc2ccc(F)cc2)no1 | inactive: 54% |
| CCS(=O)(=O)n1nc(-c2ccco2)nc1NCc1ccc(C(C)C)cc1 | inactive: 77% |
| Cc1ccc(-c2nnn(CC(=O)N(c3ccccc3)C(C(=O)NCc3ccccc3)c3ccncc3)n2)o1 (stereo not given) | inactive: 93% |
| CCc1ccccc1NC(=O)c1nn(-c2ccc(C)cc2)c(=O)c2c1c1ccccc1n2C | inactive: 140% |
| Cc1cc(C)nc(SC2=CS(=O)(=O)c3ccccc32)n1 | inactive: 88% |
